Laboratory results from publication PMC4336329 (PLoS ONE, 2015).
The whole screen tested about 310,000 compounds, of which about 14,000 (4.5%) showed an effect of 50% or more. The effect is printed as a negative number. This is one part of the list.

biological target: human ether-à-go-go-related gene (hERG) potassium channel (human, UniProt Q12809); experiment: primary screen, population patch clamp on CHO cells stably expressing hERG
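Note: peak tail current of the secondary pulse compared with the same well before compound.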

Sequence of human ether-à-go-go-related gene (hERG) potassium channel (Q12809 whole entry, looked up): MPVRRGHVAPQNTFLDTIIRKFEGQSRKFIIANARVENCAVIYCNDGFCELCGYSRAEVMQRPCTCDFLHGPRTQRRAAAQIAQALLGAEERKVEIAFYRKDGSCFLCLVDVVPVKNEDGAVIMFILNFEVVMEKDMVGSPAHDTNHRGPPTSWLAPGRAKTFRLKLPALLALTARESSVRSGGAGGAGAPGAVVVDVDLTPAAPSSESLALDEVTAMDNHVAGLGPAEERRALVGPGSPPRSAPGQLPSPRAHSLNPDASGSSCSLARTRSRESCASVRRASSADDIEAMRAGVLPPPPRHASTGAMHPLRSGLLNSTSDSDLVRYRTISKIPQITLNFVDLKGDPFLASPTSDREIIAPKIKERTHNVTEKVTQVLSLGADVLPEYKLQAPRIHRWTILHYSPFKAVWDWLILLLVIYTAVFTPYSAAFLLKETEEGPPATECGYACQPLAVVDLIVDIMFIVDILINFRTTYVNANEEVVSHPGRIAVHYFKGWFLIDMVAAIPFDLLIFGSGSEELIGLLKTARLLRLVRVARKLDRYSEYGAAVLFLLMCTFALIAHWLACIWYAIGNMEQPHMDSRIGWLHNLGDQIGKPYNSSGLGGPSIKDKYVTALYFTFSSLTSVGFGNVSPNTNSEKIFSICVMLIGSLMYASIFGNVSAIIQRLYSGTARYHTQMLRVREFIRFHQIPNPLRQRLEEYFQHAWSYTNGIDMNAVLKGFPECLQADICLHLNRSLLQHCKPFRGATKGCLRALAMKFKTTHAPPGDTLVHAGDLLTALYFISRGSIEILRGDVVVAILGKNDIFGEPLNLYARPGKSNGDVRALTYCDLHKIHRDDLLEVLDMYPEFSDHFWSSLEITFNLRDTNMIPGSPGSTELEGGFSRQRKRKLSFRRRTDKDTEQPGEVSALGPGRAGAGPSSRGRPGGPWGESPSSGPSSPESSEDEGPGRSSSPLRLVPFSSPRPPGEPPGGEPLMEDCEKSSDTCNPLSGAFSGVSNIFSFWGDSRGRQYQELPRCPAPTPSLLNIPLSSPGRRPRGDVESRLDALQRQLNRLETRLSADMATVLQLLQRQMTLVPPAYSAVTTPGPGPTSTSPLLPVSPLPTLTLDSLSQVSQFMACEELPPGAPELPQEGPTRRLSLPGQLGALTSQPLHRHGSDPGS

Row | Compound | hERG current change (%, negative = inhibition) at 10uM
1 | CCOC(=O)c1c(CC(C)C)csc1NC(=O)COC(=O)c1cc(OC)c(OC)cc1[N+](=O)[O-] | 27.5%
2 | Cc1ccc(C(=O)NCCc2ccccc2)cc1N1CCCC1=O | 17.7%
3 | O=C(CCl)Oc1ccc2occ(C(=O)c3cccs3)c2c1 | 0.872%
4 | COCCNC(=O)C(OC(=O)CC1Sc2ccccc2NC1=O)c1ccncc1 (stereo not drawn) | -7.65%
5 | CCc1ccc(C2CC(=O)Nc3c2c(=O)nc2c(C)cccn32)cc1 (stereo not drawn) | 10.1%
6 | C=CCn1c(O)c(/C(CC)=N/NC(=S)Nc2ccccc2)c(=O)[nH]c1=O | 11.8%
7 | O=c1[nH][nH]c(C(F)(F)F)c1C=Nc1cccc(Cl)c1 | 7.39%
8 | Cc1ccc2ccccc2c1NC(=O)c1ccco1 | -0.144%
9 | CN(C)S(=O)(=O)N1CCC(Oc2ccc(C(=O)NCC(C)(C)CO)cc2)CC1 | 5.9%
10 | COc1cc(NC(=O)C2CCN(S(=O)(=O)c3cnc[nH]3)CC2)cc(OC)c1OC | -1.88%
11 | Cc1ccc(Cl)c(NC(=O)CSc2n[nH]c(=O)n2C2CC2)c1Cl | 8.34%
12 | O=C(Nc1nnc(SCc2ccc(F)cc2)s1)C1CC(=O)N(Cc2ccccc2)C1 (stereo not drawn) | -1.89%
13 | N#Cc1c(SCC(=O)Nc2ccccc2)nsc1SCC(=O)Nc1ccccc1 | 3.79%
14 | CCN(c1ccccc1)S(=O)(=O)c1c[nH]c2ccc([N+](=O)[O-])cc12 | 9.52%
15 | COc1ccc(OC)c(C(=O)C2COC(=O)C2)c1 (stereo not drawn) | 15.8%
16 | CSc1ccccc1NC(=O)COc1ccc(Cl)cc1Cl | -0.82%
17 | COc1ccc(C(=O)N/N=C(\C)CC(=O)Nc2ccc(N(C)C)cc2)c(OC)c1 | 9.97%
18 | CCCn1c(NCc2cccc(OC)c2O)nc2ccccc21 | -18.1%
19 | O=C(CNC(=O)c1cccc(Cl)c1)N/N=C/C=C/c1ccccc1 | -11.6%

Row | Compound | hERG current change (%, negative = inhibition) at 10uM
20 | CCc1nnc(NC(=O)CN2CCN(Cc3cccc(Cl)c3)CC2)s1 | -8.15%
21 | CCc1ccc(CN2CCN(c3ncccn3)CC2)cc1 | -10.1%
22 | CC(C)c1nccn1CCC(=O)O.Cl | 11.7%
23 | O=[N+]([O-])c1ccccc1CSc1nc2ccccc2o1 | 13.9%
24 | O=C1c2ccccc2NC(c2ccco2)N1NS(=O)(=O)c1ccccc1 (stereo not drawn) | 7.89%
25 | O=C(CN1CCN(S(=O)(=O)c2ccc(F)cc2)CC1)NC1CCCC1 | -8.45%
26 | COc1ccccc1-c1nnc2sc(COc3ccccc3)nn12 | -2.14%
27 | Cc1ccc(NC(=O)CN2CCc3ccccc3C2)cc1F | 3.07%
28 | Fc1ccc(N/N=C/c2ccncc2)c(F)c1 | -9.23%
29 | O=C1CSC(=S)N1/N=C/C=C/c1ccccc1 | 12.5%
30 | CCC(C)N1C(=O)NC(=O)C2(Cc3cc(C)ccc3N(C)C2)C1=O (stereo not drawn) | 3.02%
31 | Cc1cc(=O)[nH]c(SCC(=O)NC(c2ccccc2)c2ccccc2)n1 | 1.89%
32 | COc1ccc(/C=C2\SC(=O)N(CCNC(=O)C3CSC4(C)CCC(=O)N34)C2=O)cc1 (stereo not drawn) | -27%
33 | CCN(CC)C(=O)CN1C(=O)C2CC=C(Cl)CC2C1=O (stereo not drawn) | -3.4%
34 | COC(=O)c1cc(=O)n(Cc2cccs2)c(=Nc2ccc(F)cc2)s1 | 9.11%
35 | CCn1c(O)c(N=N)c2ccccc21 | 12.3%
36 | Cc1ccc(C)c(S(=O)(=O)NCc2ccc(C(=O)N3CCN(C)CC3)cc2)c1 | -13.7%
37 | CC(NC(=O)c1ccco1)c1ccc2c(c1)OCCO2 (stereo not drawn) | 13.2%
38 | OCC[C@@H]1C[C@@H](O)[C@H](O)[C@]2(OCc3ccccc32)O1 | 19%

Row | Compound | hERG current change (%, negative = inhibition) at 10uM
39 | O=S(=O)(Nc1nc2ccccc2nc1NCc1ccco1)c1ccc(F)cc1 | 22.9%
40 | Cc1c(C(=O)NCCS(=O)(=O)N2CCN(c3ccccc3F)CC2)cccc1[N+](=O)[O-] | 9.43%
41 | CCOCCCn1c(=NC(=O)c2cccs2)c(C#N)cc2c(=O)n3ccccc3nc21 | -76.9%
42 | CCOC(=O)c1cnc2ccc(C(=O)OC)cc2c1NCCN1CCOCC1 | -30.2%
43 | COC(=O)[C@@]12CCCN1[C@H](c1ccc(-c3ccc(OC)cc3)cc1)[C@@H]1C(=O)N(C)C(=O)[C@@H]12.O=C(O)C(F)(F)F | 3.82%
44 | Cc1ccccc1N(CC(=O)Nc1ccccc1C(=O)NCc1ccco1)S(=O)(=O)c1ccccc1 | -5.08%
45 | CN(C)CCN(Cc1cccs1)S(=O)(=O)c1csc(C(N)=O)c1 | 0.567%
46 | COc1ccc(-c2c/c(=N\c3nc(-c4ccccc4)c(C)s3)c3ccccc3o2)cc1O | 4.17%
47 | O=C(Oc1cc2oc(=O)c3c(c2cc1Cl)CCCC3)c1cccs1 | 15.9%
48 | O=C(c1cc(S(=O)(=O)N2CCOCC2)ccc1F)N1CCC2(CC1)OCCO2 | -8.99%
49 | CNc1nc(NC)nc(-n2c(C(F)(F)F)nc3ccccc32)n1 | -17%
50 | CC(=O)NCc1cc(-c2nn(C)c(=O)c3ccccc23)ccc1C | -0.403%
51 | CCC(C)Sc1nc(O)cc(=O)[nH]1 (stereo not drawn) | 1.21%
52 | Cc1cc(-c2nc(C)c(-c3nnc(SCC(=O)Nc4ccccc4)n3C)s2)no1 | 13.4%
53 | S=C(Nc1ccccc1)N1CCC(Cc2ccccc2)CC1 | -5.02%
54 | O=C(COC(=O)COc1ccc(Br)cc1)NC1CCCCCC1 | -2.53%
55 | Cc1[nH]n(C2=NCCS2)c(=O)c1N=Nc1cccc(C(F)(F)F)c1 | 7.25%
56 | CCOCCCNC(=O)c1cc(Sc2nnc(C)s2)nc2ccccc12 | -2.23%
57 | CCn1c(SCc2cccc(OC)c2)nc2ccccc2c1=O | 18.8%
